{"source": "PubChem BioAssay AID894", "about": "(National Center for Advancing Translational Sciences (NCATS), 2007)", "note": "In all, about 150,000 compounds went through this assay and about 6,500 (4.3%) were called active. Inconclusive results, whose numbers are uncertain, are shown with a selection of clear calls. The call rests on the fitted dose curve; in most records, active means well fitted inhibition curve with a large enough effect (not every such curve was filed as active); inconclusive means small, poorly fitted or top-dose-only effect, or another doubt; inactive means no such curve, though single readings can be large or run the other way. No potency is given beside an inconclusive call; the fits are too rough. On the % scale 0 is the no-effect control and ±100 the full control effect; potency means the concentration at half of the fitted maximal effect; tags describe the fitted curve by direction and shape.", "data": [{"target": "15-hydroxyprostaglandin dehydrogenase [NAD(+)] (Homo sapiens) (UniProt P15428)", "sequence (P15428 whole entry, looked up)": "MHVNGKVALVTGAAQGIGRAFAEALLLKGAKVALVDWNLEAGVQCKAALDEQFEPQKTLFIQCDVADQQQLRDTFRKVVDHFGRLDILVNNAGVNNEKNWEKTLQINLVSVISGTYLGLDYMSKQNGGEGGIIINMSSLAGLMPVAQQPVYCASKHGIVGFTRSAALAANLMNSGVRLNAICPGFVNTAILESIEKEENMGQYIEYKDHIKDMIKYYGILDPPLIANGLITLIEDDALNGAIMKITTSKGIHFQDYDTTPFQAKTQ", "assay": "qHTS Assay for Inhibitors of HPGD (15-Hydroxyprostaglandin Dehydrogenase)", "conditions": "purified HPGD, NADH fluorescence kinetic, PGE2 substrate; activity change, negative = inhibition: active compounds read low", "procedure,_shortened": "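20 nM HPGD preincubated 15 min at room temperature with compound in 50 mM Tris-HCl pH 8, 0.01% Tween 20. Started with 1 mM NAD+ and 30 uM prostaglandin E2; NADH fluorescence (360/450 nm) read 5 times over 30-s intervals, last minus first.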", "values": [{"smiles": "CCOC(=O)N1CCC(NC(=O)c2ccc3c(c2)sc2nc(-c4ccc(OC)cc4)cn23)CC1", "Potency": "inconclusive [inhibitor, partial curve]"}, {"smiles": "NC(=O)c1ccc(NC(=O)COC(=O)c2c3c(nc4ccccc24)/C(=C\\c2ccc4c(c2)OCO4)CCC3)cc1", "Potency": "inconclusive [inhibitor, partial curve]"}, {"smiles": "O=[N+]([O-])c1nn(-c2ccc3c(c2)OCCO3)n(O)c1=Nc1ccccc1", "activity change, negative = inhibition": "inactive: -3.38%"}, {"smiles": "Cc1cc2nc(-c3cccnc3SCC(=O)NCc3ccco3)[nH]c2cc1C", "Potency": "inconclusive [inhibitor, partial curve]"}, {"smiles": "Cc1ccc(C)c(N(CC(=O)Nc2ccc(-c3nc4ccc(C)cc4s3)cc2)S(C)(=O)=O)c1", "Potency": "inconclusive [inhibitor, partial curve]"}, {"smiles": "Cc1ccc(S(=O)(=O)n2nc(C)c(C#N)c2N)cc1", "activity change, negative = inhibition": "inactive: -6.68%"}, {"smiles": "CCc1sc(C(=O)Nc2ccsc2C(=O)OC)cc1Br", "Potency": "inconclusive [inhibitor, partial curve]"}, {"smiles": "CCC(C)NC(=O)CSc1nc2c(sc3ccccc32)c(=O)n1CCCN1CCOCC1", "note": "(stereo unspecified)", "Potency": "inconclusive [inhibitor, partial curve, poor fit]"}, {"smiles": "COc1ccccc1N1Cc2ccccc2C1", "Potency": "inconclusive [inhibitor, single point]"}, {"smiles": "COc1ccc(/C(C)=N/Nc2ccc(C(=O)O)cc2)cc1OC", "Potency": "inconclusive [inhibitor, single point]"}, {"smiles": "O=C(NNC(=O)C1CCN(S(=O)(=O)c2ccc(Cl)cc2)CC1)c1ccc(S(=O)(=O)N2CCCCC2)cc1", "activity change, negative = inhibition": "inactive: -7.88%"}, {"smiles": "CCC1CCCCN1C(=O)c1cc2cc(Br)ccc2oc1=O", "note": "(stereo unspecified)", "Potency": "inconclusive [inhibitor, single point]"}, {"smiles": "CC(=O)c1ccc(NC(=O)CSc2nc(N)c3cc4c(nc3n2)CCCC4)cc1", "Potency": "inconclusive [inhibitor, partial curve]"}, {"smiles": "CN1CCC(=NNC(=O)c2cn(-c3ccccc3)nc2-c2ccccc2)CC1", "activity change, negative = inhibition": "inactive: -2.94%"}, {"smiles": "Cc1cc(=O)oc2cc(NC(=O)C3COc4ccccc4O3)ccc12", "note": "(stereo unspecified)", "Potency": "inconclusive [inhibitor, partial curve, poor fit]"}, {"smiles": "COc1cc(/C=N/NC(=O)C(Cc2c[nH]c3ccccc23)NC(=O)OCc2ccccc2)cc([N+](=O)[O-])c1O", "note": "(stereo unspecified)", "Potency": "inconclusive [inhibitor, partial curve]"}, {"smiles": "Cc1ccc(CN2CCN(Cc3ccc(C)o3)[C@@H](C)C2)o1", "activity change, negative = inhibition": "inactive: -6.22%"}, {"smiles": "CC(C)NC(=O)c1sc2nc(-c3cccs3)cc(-c3cccs3)c2c1N", "Potency": "inconclusive [inhibitor, single point]"}, {"smiles": "COc1ccc(-c2nc3c(c4c2C[C@H](c2ccccc2)OC4)CN(S(=O)(=O)c2ccc(C)cc2)CC3)c(C)c1", "activity change, negative = inhibition": "inactive: -3.92%"}, {"smiles": "S=C(NCCCc1cnc[nH]1)NCCCN(Cc1ccc(Cl)c(Cl)c1)c1ccc(Br)cn1", "activity change, negative = inhibition": "inactive: -8.19%"}, {"smiles": "O=C(Nc1cccc2nsnc12)c1ccc(F)cc1", "Potency": "inconclusive [inhibitor, partial curve]"}, {"smiles": "CCOc1ccc(C2C=C(c3ccccc3)Nc3ncnn32)cc1", "note": "(stereo unspecified)", "Potency": "inconclusive [inhibitor, partial curve]"}, {"smiles": "CC(=O)N(CC(=O)O)c1ccccc1", "activity change, negative = inhibition": "inactive: -2.04%"}, {"smiles": "CC(=O)Nc1ccc(-c2ccccc2)s1", "activity change, negative = inhibition": "inactive: -8.25%"}, {"smiles": "COCC(=O)n1nc(-c2ccccc2)nc1NCc1ccc(F)cc1", "Potency": "inconclusive [inhibitor, partial curve]"}, {"smiles": "Cc1onc(-c2ccccc2Cl)c1C(=O)Nc1nnc(-c2cccc([N+](=O)[O-])c2)s1", "activity change, negative = inhibition": "inactive: -13.7%"}, {"smiles": "Cc1ccc(NC(=O)c2cc(-n3cnnc3)ccc2Cl)cc1", "activity change, negative = inhibition": "inactive: -7.6%"}, {"smiles": "COc1ccc(C(=O)Nc2ccccc2C(=O)N(Cc2ccco2)C(C(N)=O)C(C)C)cc1", "note": "(stereo unspecified)", "Potency": "inconclusive [inhibitor, single point]"}, {"smiles": "NC1(C(=O)O)CCC1", "activity change, negative = inhibition": "inactive: 4.22%"}, {"smiles": "CCOC(=O)Cc1nnc(NC(=O)c2ccccc2OC)s1", "Potency": "inconclusive [inhibitor, single point]"}, {"smiles": "CCN(Cc1ccccc1)S(=O)(=O)c1ccc(C(=O)Nc2nnc(-c3ccccc3OC)o2)cc1", "activity change, negative = inhibition": "inactive: -20.1%"}, {"smiles": "Cc1cccc(NC(=O)c2ccc(C3SCC(=O)N3CCc3ccccc3)cc2)c1", "note": "(stereo unspecified)", "Potency": "inconclusive [inhibitor, partial curve]"}, {"smiles": "Cc1cc(NC(=O)CSc2n[nH]c(-c3cccs3)n2)no1", "Potency": "active: 14.1 µM"}, {"smiles": "c1c2c(cc3sc(N4CCOCC4)nc13)OCO2", "Potency": "active: 28.2 µM"}, {"smiles": "Nc1cccc2c1C(=O)N(C(=O)c1cccc(S(=O)(=O)N3CCCCCC3)c1)C2=O", "Potency": "inconclusive [inhibitor, partial curve, poor fit]"}, {"smiles": "CCOC(=O)N1CCC(NC(=O)c2cnn3c(C(F)(F)F)cc(-c4cccc(OC)c4)nc23)CC1", "Potency": "inconclusive [inhibitor, partial curve]"}, {"smiles": "O=C(O)c1ccccc1/C=N\\N=C1c2ccccc2-c2ccccc21", "activity change, negative = inhibition": "inactive: -12.5%"}, {"smiles": "O=C(N/N=C/c1cccc([N+](=O)[O-])c1)c1cc2ccccc2o1", "activity change, negative = inhibition": "inactive: -4.01%"}, {"smiles": "On1c2c(c3c4nonc4ccc31)CCCC2", "Potency": "active: 15.8 µM"}, {"smiles": "N#CC1=C(N)NC(SCC(=O)O)=C(C#N)C12CCCC2", "Potency": "active: 12.6 µM"}, {"smiles": "Cc1ccc(-c2ccc(SCC(=O)c3ccccc3)nn2)cc1", "Potency": "inconclusive [inhibitor, partial curve]"}, {"smiles": "O=C(Cn1nnc(-c2ccccc2)n1)c1ccccc1", "Potency": "inconclusive [inhibitor, single point]"}, {"smiles": "COC(=O)c1cc(OC)c(OC)cc1N=CC1=C(O)CC(C)(C)CC1=O", "Potency": "inconclusive [inhibitor, single point]"}, {"smiles": "Cc1ccc(CNC(=O)c2ccc(CNc3c(N4CCCC4)c(=O)c3=O)cc2)cc1", "Potency": "active: 14.1 µM"}, {"smiles": "CCOc1ccc(-c2nnc3ccc(SCc4ccc(C(=O)OC)o4)nn23)cc1", "Potency": "inconclusive [inhibitor, partial curve]"}, {"smiles": "BrC(/C=N/Nc1nc(N2CCOCC2)nc(N2CCOCC2)n1)=C/c1ccccc1", "Potency": "active: 15.8 µM"}, {"smiles": "CCCN(c1ccc(OCC)cc1)S(=O)(=O)c1ccc2c(c1)CCN2C(=O)CCC(=O)O", "activity change, negative = inhibition": "inactive: -1.49%"}, {"smiles": "O=C(N1CCCCC1)N1CCN(C(c2ccccc2)c2ccccc2)CC1", "Potency": "inconclusive [inhibitor, partial curve]"}, {"smiles": "CCN1c2ccccc2-c2nc3ccccc3n2C1c1ccccn1", "note": "(stereo unspecified)", "Potency": "inconclusive [inhibitor, partial curve]"}, {"smiles": "CCCCN(CCCC)c1nc2ccccc2nc1NS(=O)(=O)c1ccc(NC(C)=O)cc1", "Potency": "inconclusive [inhibitor, single point]"}, {"smiles": "CCOC(=O)c1c(N2C(=O)C3C4C=CC(O4)C3C2=O)sc2c1CCCC2", "note": "(stereo unspecified)", "Potency": "active: 15.8 µM"}, {"smiles": "Cc1nn(-c2ccccc2)c2nc(Cl)c(C(=O)O)cc12", "Potency": "inconclusive [inhibitor, partial curve]"}, {"smiles": "COc1ccc(-n2cnc3cc(NCc4ccco4)ccc32)cc1", "Potency": "inconclusive [inhibitor, partial curve]"}, {"smiles": "CN(C)S(=O)(=O)c1cccc(NC(=S)N/N=C/C(c2ccccc2)c2ccccc2)c1", "Potency": "active: 17.8 µM"}, {"smiles": "COc1ccc(-n2c(N3CCN(C)CC3)nc3sc4c(c3c2=O)CCCCC4)cc1", "Potency": "inconclusive [inhibitor, partial curve]"}, {"smiles": "O=C(c1ccc([N+](=O)[O-])cc1)N1CCc2ccccc2C1", "Potency": "active: 28.2 µM"}, {"smiles": "CCCCc1nc2c(c3c1C[C@H](C)OC3)CN(C(=O)C1CC1)CC2", "activity change, negative = inhibition": "inactive: -0.564%"}, {"smiles": "COC(=O)c1cc(C(=O)Nc2nnc(CC(C)(C)C)s2)cc([N+](=O)[O-])c1", "Potency": "active: 15.8 µM"}, {"smiles": "Cc1onc(-c2ccccc2Cl)c1C(=O)OCC(=O)c1ccccc1", "Potency": "inconclusive [inhibitor, single point]"}, {"smiles": "CC(C)=C1C2C=CC1C1C(=O)N(c3ccc4c(c3)OCO4)C(=O)C21", "note": "(stereo unspecified)", "activity change, negative = inhibition": "inactive: -13.6%"}, {"smiles": "Cc1cc2cc(C#N)c(NCCNC(=S)NCCCN3CCOCC3)nc2cc1C", "Potency": "inconclusive [inhibitor, partial curve]"}, {"smiles": "CCOc1ccc(/C=C/[N+](=O)[O-])c2ccccc12", "Potency": "active: 11.2 µM"}, {"smiles": "Cc1ccc(CSc2nc3ccccc3c(=O)n2Cc2ccco2)cc1", "activity change, negative = inhibition": "inactive: -15.1%"}, {"smiles": "Cc1ccc(C2CC(=O)NC(SCCC(C)C)=C2C#N)cc1", "note": "(stereo unspecified)", "Potency": "inconclusive [inhibitor, partial curve, poor fit]"}, {"smiles": "O=C1CCCc2c1nc(-c1ccco1)n2O", "Potency": "inconclusive [inhibitor, partial curve]"}, {"smiles": "COc1cc(-c2nnc(SCc3cc(=O)oc4cc(O)c(O)cc34)o2)cc(OC)c1OC", "Potency": "active: 7.94 µM"}, {"smiles": "O=c1[nH]n(-c2ccc(F)cc2)c2ncccc12", "Potency": "active: 17.8 µM"}, {"smiles": "O=C1c2ccccc2C(=O)N1CCCCSc1nc2ccccc2o1", "Potency": "active: 25.1 µM"}, {"smiles": "Cc1ccc(NC(=O)Cn2cccc2)cc1Cl", "Potency": "active: 15.8 µM"}, {"smiles": "CC(C)c1cc(C(N)=O)c(NC(=O)c2cccc(COc3ccc(Cl)cc3)c2)s1", "Potency": "inconclusive [inhibitor, single point]"}, {"smiles": "CCCn1c(-c2ccc(F)cc2)nc2c(NCC(C)(C)CN(C)C)nc(C)nc21", "Potency": "inconclusive [inhibitor, partial curve]"}]}]}
